From the supplement of paper PMC9446081
Hit rate of the full screen: of about 39,000 compounds, about 220 (0.56%) showed activity. This is one part of the list.

test system: Escherichia coli K-12 BW25113; test: relative growth (OD600 normalised to plate interquartile mean) (fraction); higher = less growth inhibition, active = 0.2 or less; settings: 50 µM; LB; incubation time: overnight (16-24 h)
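Note: static incubation at 37 °C against the wild-type strain, values averaged over two biological replicates.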

SMILES | relative growth
CO[C@@H]1CN(C)C(=O)c2cc(NC(=O)c3ccccc3)ccc2OC[C@@H](C)N(C(=O)CN(C)C)C[C@H]1C | inactive: 0.974
C=CC[C@@H](CC(=O)NCCO)C(=O)N[C@@H](COC(=O)[C@H](CC=C)CC(=O)OC(C)(C)C)Cc1c[nH]c2ccccc12 | inactive: 0.995
C[C@H]1CCCCO[C@H](CN(C)C(=O)Cc2ccccc2)[C@@H](C)CN([C@@H](C)CO)C(=O)c2cc(NC(=O)Nc3ccc4c(c3)OCO4)ccc2O1 | inactive: 1.04
C#CCN([C@H](/C=C/C1CC1)[C@@H](O)CCn1cc(-c2ccc(C(=O)NO)s2)nn1)[C@@H](Cc1ccccc1)C(=O)OC | inactive: 1.03
COc1ccc(CN(C)C[C@@H]2Oc3c(NC(=O)C4CCOCC4)cccc3C(=O)N([C@@H](C)CO)C[C@H]2C)cc1 | inactive: 0.977
COc1ccc(S(=O)(=O)Nc2ccc3c(c2)C(=O)N([C@@H](C)CO)C[C@@H](C)[C@H](CN(C)C(=O)c2ccccc2)OCCCC[C@H](C)O3)cc1 | inactive: 1.02
CC(=O)NCc1nccc(N2CCCC2)n1 | inactive: 0.969
CC(=O)Nc1cc(Cl)ccc1C | inactive: 1.01
C[C@@H]1CN([C@H](C)CO)C(=O)CCCn2cc(nn2)CO[C@H]1CN(C)C(=O)Nc1ccc(C(F)(F)F)cc1 | inactive: 0.978
Cc1noc(C)c1NC(=O)N(C)C[C@H]1Oc2ccc(NC(=O)CCCN(C)C)cc2C(=O)N([C@@H](C)CO)C[C@@H]1C | inactive: 0.989
C[C@@H]1CCCCO[C@@H](CN(C)C(=O)Nc2ccc3c(c2)OCO3)[C@H](C)CN([C@@H](C)CO)C(=O)c2cc(NS(=O)(=O)c3ccc(Cl)cc3)ccc2O1 | inactive: 1.03
COC(=O)Cc1c(C)[nH]c(=S)[nH]c1=O | inactive: 0.997
O=C(C[C@H]1CC[C@H]2[C@@H](COC[C@@H](O)CN2C(=O)c2ccccc2)O1)NCCCN1CCOCC1 | inactive: 0.992
Cc1n[nH]c(=O)nc1NCCCOC(C)C | inactive: 0.994
CCC(=O)N[C@@H]1CC[C@@H](CC(=O)OC)O[C@H]1CO | inactive: 1.04
C[C@@H]1CN([C@H](C)CO)C(=O)Cc2cc(NC(=O)CCC(F)(F)F)ccc2O[C@H]1CN(C)Cc1ccc(-c2ccccc2)cc1 | inactive: 1.03
C[C@@H]1CCCCO[C@@H](CN(C)C(=O)NC2CCCCC2)[C@@H](C)CN([C@H](C)CO)C(=O)c2cc(NC(=O)C3CCCCC3)ccc2O1 | inactive: 1.02
CCCCCCc1nc(-c2cc(C)c(OC)c(C)c2)cc2c1[Si](C(C)C)(C(C)C)O[C@H]2c1ccccc1 | inactive: 1.01
C[C@H](CO)N1C[C@H](C)[C@@H](CN(C)Cc2ccc3c(c2)OCO3)OCCCC[C@H](C)Oc2ccc(NC(=O)Nc3ccc4c(c3)OCO4)cc2C1=O | inactive: 0.975
O=C(C[C@@H]1CC[C@@H]2[C@H](COC[C@@H](O)CN2S(=O)(=O)c2ccc(Cl)cc2)O1)N[C@@H]1CCN(Cc2ccccc2)C1 | inactive: 0.963
NS(=O)(=O)c1cc2c(cc1C(F)(F)F)NC(Cc1ccccc1)NS2(=O)=O (configuration not stated) | inactive: 1.21

SMILES | relative growth
COc1ccc(NC(=O)N(C)C[C@H]2OCCCC[C@H](C)Oc3ccc(NC(=O)Nc4cccc5ccccc45)cc3C(=O)N([C@@H](C)CO)C[C@H]2C)cc1 | inactive: 1.05
COc1ccc(NC(=O)Nc2ccc3c(c2)CC(=O)N([C@H](C)CO)C[C@@H](C)[C@H](CN(C)S(=O)(=O)c2c(C)noc2C)O3)cc1 | inactive: 0.99
Cc1c(CN2CCN(C(=O)[C@H](C)O)CC2)sc2c(N3CCOCC3)nc(-c3cnc(N)nc3)nc12 | inactive: 0.984
O=C(C[C@@H]1CC[C@H](NC(=O)Nc2ccc3c(c2)OCO3)[C@H](CO)O1)NCCCN1CCOCC1 | inactive: 0.992
C[C@@H]1CN([C@H](C)CO)C(=O)Cc2cc(NC(=O)Cn3cnnn3)ccc2O[C@H]1CN(C)C(=O)Nc1ccc2c(c1)OCO2 | inactive: 0.982
Cc1noc(C)c1NC(=O)Nc1ccc2c(c1)CC(=O)N([C@H](C)CO)C[C@@H](C)[C@@H](CN(C)Cc1ccc(C(=O)Nc3ccccc3N)cc1)O2 | inactive: 1.02
C[C@@H]1CCCCO[C@H](CN(C)Cc2ccc3c(c2)OCO3)[C@H](C)CN([C@H](C)CO)C(=O)c2cc(NC(=O)Nc3ccc4c(c3)OCO4)ccc2O1 | inactive: 0.961
O=C1CCOCC1 | inactive: 1.01
O=C(N[C@@H](c1ccc(-c2ccccc2)cc1)c1cnccn1)C1CCN(CCCOc2ccccc2)CC1 | inactive: 0.979
CO[C@H]1CN(C)C(=O)c2ccc(NC(=O)C3CCOCC3)cc2OC[C@@H](C)N(Cc2cccnc2)C[C@@H]1C | inactive: 0.993
C[C@@H]1CN([C@H](C)CO)C(=O)c2ccccc2-c2ccccc2CO[C@H]1CN(C)C(=O)Nc1ccc(F)cc1 | inactive: 0.974
C=CC[C@@H](CC(=O)N(CCO)Cc1ccccc1)C(=O)NC[C@H](OC(=O)[C@@H](CC=C)Cc1ccc(F)cc1)c1ccccc1 | inactive: 1.07
OC[C@H]1O[C@@H](n2ncc3c(O)ncnc32)[C@H](O)[C@@H]1O | inactive: 0.996
COc1ccccc1CNC(=O)C[C@H]1C[C@H]2c3cc(NC(=O)C4CCOCC4)ccc3O[C@H]2[C@H](CO)O1 | inactive: 0.986
C[C@@H]1CN([C@H](C)CO)C(=O)Cc2cc(NC(=O)Nc3cccc4ccccc34)ccc2O[C@@H]1CN(C)Cc1ccc(-c2ccccc2)cc1 | inactive: 1.01
COc1ccc(NC(=O)Nc2ccc3c(c2)C(=O)N([C@@H](C)CO)C[C@@H](C)[C@H](CN(C)C(=O)Nc2cccc4ccccc24)O3)cc1 | inactive: 1.04
C[C@@H]1CN([C@@H](C)CO)C(=O)Cc2cc(NC(=O)Cc3ccccc3)ccc2O[C@H]1CN(C)Cc1ccc(Oc2ccccc2)cc1 | inactive: 0.99
COc1ccc(NC(=O)N(C)C[C@H]2OCCCC[C@H](C)Oc3ccc(NC(=O)CCC(F)(F)F)cc3C(=O)N([C@@H](C)CO)C[C@H]2C)cc1 | inactive: 0.989
C[C@@H]1CN([C@@H](C)CO)S(=O)(=O)c2ccc(C#CCN(C)C)cc2O[C@H]1CN(C)C(=O)c1ccccc1F | inactive: 0.915
COCC#Cc1ccc2c(c1)O[C@@H](CN(C)C(=O)CN(C)C)[C@@H](C)CN([C@@H](C)CO)S2(=O)=O | inactive: 0.985
COc1ccc(NC(=O)Nc2ccc3c(c2)C(=O)N([C@@H](C)CO)C[C@@H](C)[C@H](CN(C)Cc2ccccc2)OCCCC[C@@H](C)O3)cc1 | inactive: 1.03

SMILES | relative growth
CN1C(=O)c2cc(NC(=O)Nc3ccccc3F)ccc2OC[C@@H]2O[C@@H](CC(=O)NCc3ccc(-c4ccccc4)cc3)CC[C@H]21 | inactive: 0.988
C[C@H]1CN([C@@H](C)CO)C(=O)c2ccccc2-c2ccccc2CO[C@@H]1CN(C)C(=O)Nc1ccccc1C(F)(F)F | inactive: 0.977
Cc1nnc(=O)[nH]c1NNc1ccccc1 | inactive: 0.981
C[C@@H]1CN([C@H](C)CO)C(=O)Cc2cc(NS(=O)(=O)c3ccccc3)ccc2O[C@H]1CN(C)Cc1ccc(C(=O)O)cc1 | inactive: 0.979
COc1ccc2c3c(n(c2c1)C)[C@H](CO)N(C[C@]13CCN(CC1)C(=O)Nc1c(noc1C)C)C(=O)Nc1ccc(cc1)F | inactive: 1.02
COC(=O)c1cc(C)cc(=O)o1 | inactive: 1.02
Cc1noc(C)c1S(=O)(=O)N(C)C[C@@H]1Oc2ccc(NS(=O)(=O)c3cn(C)cn3)cc2CC(=O)N([C@@H](C)CO)C[C@H]1C | inactive: 0.973
C[C@@H]1CN([C@@H](C)CO)C(=O)c2cc(NS(C)(=O)=O)ccc2O[C@@H]1CN(C)S(=O)(=O)c1ccccc1 | inactive: 0.988
Cc1ccc(S(=O)(=O)N(C)C[C@H]2Oc3ccc(NC(=O)Cn4cnnn4)cc3C(=O)N([C@@H](C)CO)C[C@H]2C)cc1 | inactive: 1.01
C[C@@H]1CN([C@H](C)CO)C(=O)Cc2cc(NC(=O)Nc3ccc(C(F)(F)F)cc3)ccc2O[C@@H]1CN(C)Cc1ccc(C(F)(F)F)cc1 | inactive: 1.03
CN(C)c1nc(N)nc(Cn2ccnc2)n1 | inactive: 1.01
Cc1cc(O)c(C=O)c2c1C(=O)Oc1c(COC(=O)C=CC(=O)O)c(O)c(C(=O)O)c(C)c1O2 | inactive: 1.14
C[C@H]1CN([C@@H](C)CO)C(=O)Cc2cc(NS(=O)(=O)c3cccs3)ccc2O[C@@H]1CN(C)S(=O)(=O)c1ccccc1 | inactive: 0.947
O=C(C[C@@H]1C[C@H]2c3cc(NC(=O)Nc4ccc(C(F)(F)F)cc4)ccc3O[C@H]2[C@@H](CO)O1)NCc1ccc(Cl)cc1 | inactive: 0.901
Cc1noc(C)c1S(=O)(=O)N(C)C[C@H]1Oc2ccc(NC(=O)CCN3CCOCC3)cc2CC(=O)N([C@H](C)CO)C[C@@H]1C | inactive: 0.994
C[C@@H](C[N+](C)(C)C)OC(N)=O | inactive: 0.988
CC(C)n1cnnc1[C@@H](C)N | inactive: 0.984
O=C(C[C@H]1C[C@@H]2c3cc(NC(=O)NC4CCCC4)ccc3O[C@@H]2[C@@H](CO)O1)NCc1ccc2c(c1)OCO2 | inactive: 1.02
CO[C@H](C(=O)N(C)C[C@H]1OCc2ccccc2-c2c(n(C)c3ccccc23)C(=O)N([C@@H](C)CO)C[C@H]1C)c1ccccc1 | inactive: 1.01
C[C@@H]1CCCCO[C@@H](CN(C)C(=O)Cc2ccccc2)[C@H](C)CN([C@H](C)CO)C(=O)c2cc(NC(=O)NC3CCCCC3)ccc2O1 | inactive: 1
